Data published in PubChem BioAssay AID1460 (National Center for Advancing Translational Sciences (NCATS), 2008).
Where “and” joins values, the source holds several entries; their conditions need not be identical. Identical values can stand only once. In all, about 270,000 compounds went through this assay and about 5,800 (2.1%) were called active. The shares of active, inactive and inconclusive entries below differ from those in the screen. Calls come from the whole dose curve; as a rule, active = well fitted inhibition curve with a large enough effect; inconclusive = small, poorly fitted or top-dose-only effect; inactive = flat fitted curve, though single readings scatter. A potency beside an inconclusive call is a rough fit, not a confirmed value.

biological target: Microtubule-associated protein tau (Homo sapiens) (UniProt P10636); assay: qHTS for Inhibitors of Tau Fibril Formation, Thioflavin T Binding; conditions: recombinant tau K18 P301L (four-repeat tau fragment), heparin-induced fibrillization, ThT fluorescence; series mostly up to 57.4 µM; note: nearly all actives have a fitted effect of over 55% in size
How it was run: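 Aggregation was driven by heparin (20 uM final) acting on recombinant tau […] bearing P301L in 100 mM sodium acetate pH 7; fibrils were detected with Thioflavin T.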
% is set by controls: 0 for no effect and ±100 for the full control effect; potency is the fitted concentration of half-maximal effect; tags give direction and shape of the fitted curve.

Sequence of UniProt P10636 (P10636 whole entry, looked up, the tested form may be a part): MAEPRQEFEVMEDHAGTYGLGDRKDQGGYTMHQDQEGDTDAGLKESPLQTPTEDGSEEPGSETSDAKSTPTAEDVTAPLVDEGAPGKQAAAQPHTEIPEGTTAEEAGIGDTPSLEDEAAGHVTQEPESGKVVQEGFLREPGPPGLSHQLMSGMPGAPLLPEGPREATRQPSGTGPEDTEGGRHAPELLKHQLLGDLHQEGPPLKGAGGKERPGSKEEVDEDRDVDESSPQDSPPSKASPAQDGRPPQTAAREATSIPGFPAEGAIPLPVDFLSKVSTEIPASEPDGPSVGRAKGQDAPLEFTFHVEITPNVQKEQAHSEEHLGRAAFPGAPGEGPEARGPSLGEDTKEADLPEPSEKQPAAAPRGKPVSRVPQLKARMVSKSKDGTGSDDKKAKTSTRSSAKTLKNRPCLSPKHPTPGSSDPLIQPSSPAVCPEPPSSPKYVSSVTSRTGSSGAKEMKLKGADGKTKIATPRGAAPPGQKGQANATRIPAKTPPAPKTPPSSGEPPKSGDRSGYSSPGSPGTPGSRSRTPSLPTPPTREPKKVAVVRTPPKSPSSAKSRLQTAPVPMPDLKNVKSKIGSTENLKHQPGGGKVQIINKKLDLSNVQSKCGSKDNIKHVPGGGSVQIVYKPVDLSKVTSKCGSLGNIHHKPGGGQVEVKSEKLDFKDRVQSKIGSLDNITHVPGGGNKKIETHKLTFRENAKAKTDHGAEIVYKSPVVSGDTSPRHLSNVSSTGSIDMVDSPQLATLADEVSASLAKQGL

Row | SMILES | Potency | activity, negative = inhibition
1 | Cc1cc(C)n2[nH]c(=O)c(N=Nc3cccc(Cl)c3)c2n1 | inconclusive: 14.1 µM [inhibitor, partial curve] | –
2 | Cc1noc(C)c1CSCC(=O)N1CCN(c2ccc(F)cc2)CC1 | inconclusive: 17.8 µM [inhibitor, partial curve, poor fit] | –
3 | CC12C=C(/C=C/C=C/c3ccccc3)C(C)(C1)C(/C=C/c1ccccc1)CC2=O (stereo not drawn) | inconclusive: 1.78 µM [inhibitor, partial curve] | –
4 | CCOc1ccc(C2C=C(c3ccccc3)Nc3nnnn32)cc1 (stereo not drawn) | inconclusive: 14.1 µM [inhibitor, single point] | –
5 | CCS(=O)(=O)c1ncc(Cl)c(C(=O)Nc2ccc(S(=O)(=O)N(C)c3ccccc3)cc2)n1 | inconclusive: 3.16 µM [inhibitor, full curve] | –
6 | O=C(N/N=C/c1ccc(-c2ccc(S(=O)(=O)Nc3ncccn3)cc2)o1)c1cc2ccccc2cc1O | active: 14.1 µM | –
7 | O=C(Nc1ccc2oc(-c3ccc4ccccc4c3)nc2c1)c1cccs1 | inconclusive: 10 µM [activator, partial curve] | –
8 | COc1ccc(N(C(=O)c2ccco2)C(C(=O)NC2CCCC2)c2ccc(N(C)C)cc2)cc1 (stereo not drawn) | inactive | –
9 | CCS(=O)(=O)c1ccc(N)cc1 | inactive | –
10 | O=C(Cn1cc(SCc2ccccc2Cl)c2ccccc21)N1CCOCC1 | inconclusive: 31.6 µM [inhibitor, partial curve, poor fit] | –
11 | COc1ccccc1NC(=O)/C=C/c1ccc2c(c1)OCO2 | inconclusive: 2.51 µM [inhibitor, full curve] | –
12 | COc1cccc(-c2cc(=O)c3cc(NC(=O)c4ccccc4)ccc3[nH]2)c1 | inconclusive: 1.26 µM [inhibitor, full curve] | –
13 | CCOC(=O)c1c(-c2cccs2)csc1NC(C)=O | inactive | –
14 | CCOc1ccc(NC(=O)c2cc3cc4ccc(C)cc4nc3o2)cc1 | inconclusive: 1.41 µM [inhibitor, full curve] | –
15 | O=C(c1ccc2c(c1)OCO2)[C@@H]1[C@@H]2C(=O)N(C3CCCCC3)C(=O)[C@@H]2C2c3ccccc3C=CN21 (stereo partly drawn) | active: 28.2 µM | –
16 | O=C(CC1C(=O)NCCN1Cc1cccc(Oc2ccccc2)c1)NCCc1cnccn1 (stereo not drawn) | inconclusive: 25.1 µM [inhibitor, partial curve, poor fit] | –
17 | CCN(C(=O)c1ccc(C(=O)N(CC)c2ccccc2C)cc1)c1ccccc1C | inactive | –
18 | O=C1c2ccccc2C(=O)N1CCC(c1ccc(F)cc1)c1ccco1 (stereo not drawn) | inactive | –
19 | O=C(CCCN1C(=O)c2cccc3cccc(c23)C1=O)N1CCc2ccccc2C1 | inconclusive: 8.91 µM [inhibitor, partial curve] | –
20 | COC(=O)[C@@H]1CC[C@H](C)[C@@H](c2ccc(C)cc2)N1C(=O)c1ccc(/C=N/O[C@H](C)c2cn([C@@H]3COC[C@H]3O)nn2)cc1 | inconclusive: 35.5 µM [inhibitor, single point] | –
21 | NC(=O)CC(NC(=O)c1ccc(Br)cc1)c1ccc(NCc2ccc(F)cc2)c([N+](=O)[O-])c1 (stereo not drawn) | inconclusive: 11.2 µM [inhibitor, partial curve] | –
22 | CCCn1nnc(NC(=S)NC(=O)/C=C/c2ccco2)n1 | inconclusive: 22.4 µM [inhibitor, partial curve] | –
23 | COc1ccccc1C(=O)Nc1cccc(C(=O)OCc2cc(=O)n3ccsc3n2)c1 | inconclusive: 5.01 µM [inhibitor, partial curve] | –

Row | SMILES | Potency | activity, negative = inhibition
24 | COc1ccc(NC(=S)N2CCN(C(c3ccccc3)c3ccccc3)CC2)cc1OC | inactive | –
25 | Cc1ccc(CNC(=O)C(C)n2nc(C)n3c(cc4sccc43)c2=O)cc1 (stereo not drawn) | inactive | –
26 | Cc1ccccc1NC(=O)CSc1nc2ccccc2c2nc(CCn3cncc3C)nn12 | inconclusive: 44.7 µM [inhibitor, single point] | –
27 | CCOc1ccc(C(C)=O)cc1CSc1nc2nc(C)cc(C)n2n1 | inactive | –
28 | CCn1c(C(=O)N2CCC(C(=O)NCCc3ccc(C)cc3)CC2)cc2sccc21 | inactive | –
29 | COc1ccc(NC(=O)CCc2c(C)nn(-c3ccc(N4CCCCC4)nn3)c2C)cc1Cl | inconclusive: 10 µM [inhibitor, partial curve] | –
30 | Cc1ccc(C)c(NC(=O)C(Sc2nnc(-c3cccs3)o2)c2ccccc2)c1 (stereo not drawn) | inconclusive: 44.7 µM [inhibitor, single point] | –
31 | COCCCNC(=O)c1ccc(-c2nc(CS(=O)(=O)c3ccc(C)cc3)c(C)o2)cc1 | inactive | –
32 | CCNc1ccc(C(=O)O)cc1N | inconclusive: 39.8 µM [inhibitor, single point] | –
33 | COC(=O)c1ccc2c(=O)n(CCCCCC(=O)NCCc3ccc(Cl)cc3)c(=O)[nH]c2c1 | inconclusive: 1.58 µM [inhibitor, full curve, poor fit] | –
34 | CCC(=O)Oc1ccc(NC(=O)c2ccco2)cc1 | inactive | –
35 | CCOC(=O)Cc1csc(NC(=O)c2ccc(S(=O)(=O)N3CCOCC3)cc2)n1 | inactive | –
36 | O=C(/C=C/c1c(Cl)cccc1Cl)n1cccn1 | active: 10 µM | –
37 | O=C(O)C1CSC(c2ccco2)N1 (stereo not drawn) | inconclusive: 8.91 µM [inhibitor, partial curve] | –
38 | CCc1ccc(/C=C2\Oc3ccc(C(=O)OC)cc3C2=O)cc1 | inconclusive: 5.01 µM [inhibitor, full curve] | –
39 | O/N=C/c1ccc(OCc2ccccc2F)c(Cl)c1 | inconclusive: 5.01 µM [inhibitor, partial curve, poor fit] | –
40 | CCN(CC(=O)Nc1ccc(OC)cc1)C(=O)c1ccc([N+](=O)[O-])cc1 | inactive | –
41 | Cc1ccc(OCC(=O)N2CCN(c3ccc([N+](=O)[O-])c(N4CCOCC4)c3)CC2)cc1 | inconclusive: 17.8 µM [inhibitor, partial curve] | –
42 | Cc1ccc(C(C)C)c(OCC(O)CN2CCN(c3ccccc3F)CC2)c1 (stereo not drawn) | inconclusive: 31.6 µM [inhibitor, partial curve, poor fit] | –
43 | C=CCNC(=O)c1ccc(C)cc1Cl | inactive | –
44 | CCN(CC)c1ccc(NC(=O)c2cnn(-c3ccccc3)c2-n2cccc2)c(C)c1 | inconclusive: 3.55 µM [inhibitor, full curve, poor fit] | –
45 | O=C(O)COc1ccccc1/C=N/Nc1ccc(S(=O)(=O)Nc2ccc(Cl)cc2)cc1[N+](=O)[O-] | active: 14.1 µM | –
46 | COc1ccc(-c2nc(CSCC(=O)N3CCN(c4cc(Cl)ccc4C)CC3)c(C)o2)cc1 | inconclusive: 1 µM [inhibitor, full curve, poor fit] | –

Row | SMILES | Potency | activity, negative = inhibition
47 | Cc1cc(C(=O)OCC(=O)c2ccc(Cl)c([N+](=O)[O-])c2)c2cccc(C)c2n1 | inconclusive: 28.2 µM [inhibitor, single point] | –
48 | O=[N+]([O-])c1cc(C(F)(F)F)cc([N+](=O)[O-])c1NCCNC(=S)Nc1cccc(F)c1 | inconclusive: 7.94 µM [inhibitor, full curve] | –
49 | COc1ccc(OC2C=CC(c3ccccc3)OC2CO)cc1 (stereo not drawn) | – | inactive: -12.2% [at 11.5 µM]
50 | CCc1nc2ccc(C(=O)NCc3cc(OC)ccc3OC)cc2nc1CC | inactive | –
51 | Cc1ccc(OCc2nnc(SCC(=O)N3CCOCC3)n2C)cc1 | inactive | –
52 | CN1C(C(=O)NCc2ccc(OC(F)(F)F)cc2)CC2Cn3c(nc4cc(Cl)c(Cl)cc43)C21 (stereo not drawn) | inconclusive: 31.6 µM [inhibitor, single point] | –
53 | O=C(Nc1ccccc1Cc1ccccc1)c1ccccc1NS(=O)(=O)c1ccc(Cl)s1 | inconclusive: 39.8 µM [inhibitor, single point] | –
54 | Cc1ccc(NCc2n[nH]c(=S)n2Cc2ccccc2)cc1Cl | inconclusive: 20 µM [inhibitor, partial curve, poor fit] | –
55 | CCOC(=O)C1C(c2ccccc2Cl)NC(=O)N(C)C1(O)C(F)(F)F (stereo not drawn) | inactive | –
56 | CCOc1ccc(/C=C/C(=O)Nc2ccc(OC)cc2[N+](=O)[O-])cc1 | inconclusive: 1.58 µM [inhibitor, full curve] | –
57 | Cc1ccc(CN2CCN(/N=C\C=C\c3ccccc3)CC2)cc1 | inconclusive: 11.2 µM [inhibitor, partial curve] | –
58 | Cc1cccc(NS(=O)(=O)c2ccc3c(c2)CC(C)N3C(=O)C2CCC2)c1C (stereo not drawn) | inactive | –
59 | CCc1ccc(CNc2ccc3c(c2)ncn3C(C)(C)C)cc1 | inconclusive: 8.91 µM [inhibitor, partial curve] | –
60 | Cc1ccc(-c2nc3ncccn3c2Nc2ccc3c(c2)OCCO3)cc1 | inconclusive: 20 µM [inhibitor, single point] and inconclusive: 10 µM [inhibitor, partial curve, poor fit] | –
61 | O=C(O)COc1ccc(/C=N/n2cnc3scc(-c4cccs4)c3c2=O)cc1 | inactive | –
62 | COc1ccc(Cn2cc3c(-c4ccc(F)cc4)nnc-3c3cc(OC)c(OC)cc32)cc1 | inconclusive: 25.1 µM [inhibitor, single point] | –
63 | COc1cccc(NC(=O)Cn2c(=O)n(CCC(=O)NCCc3ccc(Cl)cc3)c(=O)c3ccccc32)c1 | inconclusive: 20 µM [activator, single point] | –
64 | COc1ccc(-c2cc(=O)[nH][nH]2)cc1OC | inconclusive: 2.24 µM [inhibitor, full curve] | –
65 | Cc1ccc(CNC(=O)CS(=O)(=O)c2cccc3nsnc23)cc1 | inactive | –
66 | CC(C)CC(=O)NC(=S)Nc1ccc(N2CCOCC2)c(Cl)c1 | inconclusive: 31.6 µM [inhibitor, partial curve] | –
67 | CCc1ccc(CSc2nccn2-c2ccccc2)cc1 | inactive | –
68 | COc1cc(OC)c(NC(=O)c2ccc3c(SCC(=O)O)c4c(nc3c2)CCCC4)cc1Cl | inconclusive: 31.6 µM [inhibitor, partial curve] | –
